The other results are listed elsewhere or left out. At the low end of the ranking the order means little.

The assay has as its target SIX1 homeodomain (reference allele) (UniProt Q15475). The assay can be described thus: universal protein binding microarray. As to conditions: Universal all-10-mer PBM (8x60K, AMADID 030236), 300 nM GST-tagged protein, Alexa Fluor 488 anti-GST; buffer, salt, pH and temperature not stated; high values mean tight binding; most listed sequences are background and not binding sites; double strand, one strand shown.
Consider CATTGAAC, for which the binding signal is 2.5e-05 E-score.
As for CCCCCTAG, the figure is 0.0343 E-score; as for CAAGAGAC, -0.0827 E-score.
As for ATCATGGC, the figure is 0.209 E-score; as for AAAGCTAG, -0.0578 E-score.
In the case of GCACTAGC, the binding signal turned out to be 0.131 E-score.
Then GGATAATA, with 0.328 E-score.
As for CGGCCTTA, the figure is -0.0827 E-score; as for CGGGACGA, -0.171 E-score.
On to GATCTCTA, for which the binding signal was 0.165 E-score.
Then GCTCAGTA, with 0.0698 E-score; and TAAACCTA, with -0.0361 E-score; and TATCCCCA, with 0.35 E-score.
As for TCGTTACA, the figure is 0.0617 E-score; as for AGTATTCG, -0.0279 E-score.
Then CACTCAGC, with -0.128 E-score.
For GCGTCTCC, the binding signal came to 0.083 E-score.
For the sequence ATGGAAAG, the binding signal is -0.256 E-score.
As for GCGGCTCA, the figure is 0.154 E-score; as for GAGGAATC, 0.0731 E-score; as for GCCAATAA, 0.00915 E-score.
Then AACGCAAA, with -0.101 E-score.
In the case of CAGGATTA, the binding signal came out at 0.213 E-score.
Then AATTTGGA, with -0.0102 E-score; and GCACGCAC, with -0.275 E-score; and ACCGATCG, with 0.272 E-score.
Then CGCCAGAA, with 0.0165 E-score; and AGTGTCTC, with 0.14 E-score.
Consider ACGCATTC, for which the binding signal is -0.226 E-score.
Regarding GGATGCGA, the binding signal came to 0.116 E-score.
Then ACGCGTTG, with -0.148 E-score; and ACTGAGCT, with -0.0407 E-score.
Then CCGAACGA, with 0.0208 E-score; and GAGCCGCC, with 0.0196 E-score; and TAATGAGA, with 0.105 E-score.
Then AAGGCTGA, with -0.164 E-score; and AGTGGTCC, with -0.0595 E-score; and CACATAGA, with -0.089 E-score.
Consider CTTAGGCC, for which the binding signal was -0.133 E-score.
As for ACTAAAGT, the figure is -0.12 E-score; as for CGTACCAA, 0.0396 E-score.
CAATCCCG: the binding signal came to 0.155 E-score.
Consider GACTTTCA, for which the binding signal is -0.248 E-score.
For TCGTACGA, the binding signal was determined as 0.123 E-score.
Then GTAATCGA, with 0.0558 E-score.
Then CCATACGA, with 0.066 E-score; and GGTCCTGA, with 0.0339 E-score; and CAATACGA, with 0.207 E-score.
As for ACCGGTCG, the figure is -0.0395 E-score.
As for TAGTCTAA, the binding signal worked out at 0.0177 E-score.
As for CTGTACTA, the figure is -0.148 E-score; as for AGTCCTTG, -0.178 E-score.
As for TACCCCCA, the figure is 0.243 E-score; as for ACCGGAGT, 0.0581 E-score.
As for CGGTCACG, the figure is -0.28 E-score; as for ACCTATTC, -0.112 E-score; as for CCGGTCCG, -0.281 E-score.
Regarding CGTACGAC, the binding signal is -0.117 E-score.
As to ACCTCGTC, the binding signal was determined as 0.00701 E-score.
Then CTGTGCAC, with -0.041 E-score; and CGGCGTTC, with -0.121 E-score.
Then ACTGTGTA, with -0.0428 E-score; and GCAGTGCA, with -0.12 E-score; and CGATGTCA, with -0.301 E-score.
On to AAAAGGCC, for which the binding signal was -0.137 E-score.
Then TTCAAGAA, with -0.112 E-score; and GCAGCGCC, with -0.277 E-score; and ACCTGCTC, with 0.0651 E-score.
For CGTACAGA, the binding signal is -0.0765 E-score.
Then GGATGTGA, with 0.0332 E-score.
Then ACACCGAG, with 0.33 E-score; and GTCAGTAA, with -0.00843 E-score.
Take AAATATTG: the binding signal was found to be 0.0121 E-score.
Then CGACCCTC, with -0.156 E-score.
Then AACCGAAG, with -0.159 E-score.
As for AAGGAGCC, the figure is -0.0376 E-score; as for CGGAAGGA, -0.00308 E-score.
For the sequence CGCCATAA, the binding signal was -0.0579 E-score.
On to GCACGCAA, for which the binding signal is -0.199 E-score.
As for AAGCATAT, the figure is 0.191 E-score.
Then ATGCGAAC, with 0.0769 E-score; and CCAAATGC, with -0.0927 E-score; and CCCTGCCG, with -0.098 E-score.
Then AAAGACAC, with 0.102 E-score.
GGCGCACC: the binding signal is -0.0719 E-score.
As for TGTTATAA, the figure is 0.0518 E-score; as for GAATGCGC, 0.0394 E-score; as for AGGAAAAA, -0.159 E-score.
For GCATGATA, the binding signal worked out at 0.427 E-score.
In the case of GATCACGA, the binding signal came out at 0.273 E-score.
Then AGCCCCCC, with -0.0894 E-score; and AATAGCGC, with -0.0666 E-score.
For CTCCTGGC, the binding signal was found to be 0.0434 E-score.
Then CAATCCGG, with 0.268 E-score; and ACCCGTTG, with -0.0663 E-score.
As for ACGGAGAG, the figure is -0.0955 E-score; as for CAACTTTA, -0.276 E-score.
Consider CTCCTCCC, for which the binding signal was -0.193 E-score.
As for CATTTTCA, the figure is -0.118 E-score; as for CCTTTACA, -0.176 E-score.
Then AATTACCT, with -0.297 E-score; and GTCGCCAA, with -0.166 E-score.
Then AAACGTTC, with -0.207 E-score; and AGATTCCA, with -0.107 E-score.
In the case of CAAACACC, the binding signal turned out to be 0.174 E-score.
Then CCACCAGA, with 0.0796 E-score; and CAGCGTCC, with -0.225 E-score; and CTCGGTTC, with -0.0557 E-score.
As for CACTCCGC, the figure is -0.0539 E-score.

The record behind these values is PMC10668032.
